# Test results: the supplement of paper PMC8728848
# The list shows a part of the results.
# B1: Gal 4 (Homo sapiens), Q8K419 (protein)
# chain: MAYVPAPGYQPTYNPTLPYKRPIPGGLSVGMSVYIQGMAKENMRRFHVNFAVGQDDGADVAFHFNPRFDGWDKVVFNTMQSGQWGKEEKKKSMPFQKGKHFELVFMVMPEHYKVVVNGNSFYEYGHRLPVQMVTHLQVDGDLELQSINFLGGQPAAAPYPGAMTIPAYPAGSPGYNPPQMNTLPVMTGPPVFNPRVPYVGALQGGLTVRRTIIIKGYVLPTARNFVINFKVGSSGDIALHLNPRIGDSVVRNSFMNGSWGAEERKVAYNPFGPGQFFDLSIRCGMDRFKVFANGQHLFDFSHRFQAFQMVDTLEINGDITLSYVQI
# Assays:
# Experiment in all cases: glycan array binding signal (z-score within array); higher = stronger binding
# Conditions in all cases: glycan notation: IUPAC condensed, linker removed
# [1] = biological target: Neu5Ac(a2-3)Gal(b1-3)GalNAc
# Outline: (§1)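 Columns mapping to the same glycan were averaged after glycan names were converted to IUPAC-condensed notation. The data come from 3228 arrays in the Consortium for Functional Glycomics database, limited to those with an available protein sequence. Binding is reported as a within-array Z-score averaged across arrays of one protein sequence and across linkers.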
# [2] = biological target: Neu5Ac(a2-3)Gal(b1-3)GalNAc(b1-3)Gal(a1-4)Gal(b1-4)Glc
# Outline: as §1
# [3] = biological target: Neu5Ac(a2-3)Gal(b1-3)GalNAc(b1-4)[Neu5Ac(a2-3)]Gal(b1-4)Glc
# Outline: as §1
# [4] = biological target: Neu5Ac(a2-3)Gal(b1-3)GalNAc(b1-4)[Neu5Ac(a2-8)Neu5Ac(a2-3)]Gal(b1-4)Glc
# Outline: as §1
# [5] = biological target: Neu5Ac(a2-3)Gal(b1-3)GalNAc6S
# Outline: as §1
# [6] = biological target: Neu5Ac(a2-3)Gal(b1-3)GlcNAc
# Outline: as §1
# [7] = biological target: Neu5Ac(a2-3)Gal(b1-3)GlcNAc(b1-2)Man(a1-3)[GlcNAc(b1-4)][Neu5Ac(a2-3)Gal(b1-3)GlcNAc(b1-2)Man(a1-6)]Man(b1-4)GlcNAc(b1-4)GlcNAc
# Outline: as §1
# [8] = biological target: Neu5Ac(a2-3)Gal(b1-3)GlcNAc(b1-2)Man(a1-3)[Neu5Ac(a2-3)Gal(b1-3)GlcNAc(b1-2)Man(a1-6)]Man(b1-4)GlcNAc(b1-4)GlcNAc
# Outline: as §1
# [9] = biological target: Neu5Ac(a2-3)Gal(b1-3)GlcNAc(b1-3)Gal(b1-3)GlcNAc
# Outline: as §1
# [10] = biological target: Neu5Ac(a2-3)Gal(b1-3)GlcNAc(b1-3)Gal(b1-4)GlcNAc
# Outline: as §1
# [11] = biological target: Neu5Ac(a2-3)Gal(b1-3)GlcNAc(b1-3)GalNAc
# Outline: as §1
# [12] = biological target: Neu5Ac(a2-3)Gal(b1-3)GlcNAc(b1-6)GalNAc
# Outline: as §1
# [13] = biological target: Neu5Ac(a2-3)Gal(b1-3)GlcNAc6S
# Outline: as §1
# [14] = biological target: Neu5Ac(a2-3)Gal(b1-3)[Fuc(a1-4)]GlcNAc
# Outline: as §1
# [15] = biological target: Neu5Ac(a2-3)Gal(b1-3)[Fuc(a1-4)]GlcNAc(b1-3)Gal(b1-3)[Fuc(a1-4)]GlcNAc
# Outline: as §1
# [16] = biological target: Neu5Ac(a2-3)Gal(b1-3)[Fuc(a1-4)]GlcNAc(b1-3)Gal(b1-4)[Fuc(a1-3)]GlcNAc
# Outline: as §1
# [17] = biological target: Neu5Ac(a2-3)Gal(b1-3)[Neu5Ac(a2-3)Gal(b1-4)]GlcNAc
# Outline: as §1
# [18] = biological target: Neu5Ac(a2-3)Gal(b1-3)[Neu5Ac(a2-6)]GalNAc
# Outline: as §1
# [19] = biological target: Neu5Ac(a2-3)Gal(b1-3)[Neu5Ac(a2-6)]GlcNAc(b1-3)[Fuc(a1-3)[Gal(b1-4)]GlcNAc(b1-6)]Gal(b1-4)Glc
# Outline: as §1
# Neu5Ac(a2-3)Gal(b1-4)Glc = biological target: Neu5Ac(a2-3)Gal(b1-4)Glc
# Outline: as §1
# [20] = biological target: Neu5Ac(a2-3)Gal(b1-4)GlcNAc
# Outline: as §1
# [21] = biological target: Neu5Ac(a2-3)Gal(b1-4)GlcNAc(b1-2)Man
# Outline: as §1
# [22] = biological target: Neu5Ac(a2-3)Gal(b1-4)GlcNAc(b1-2)Man(a1-3)[GlcNAc(b1-2)Man(b1-4)GlcNAc(b1-2)Man(a1-6)]Man(b1-4)GlcNAc(b1-4)GlcNAc
# Outline: as §1
# [23] = biological target: Neu5Ac(a2-3)Gal(b1-4)GlcNAc(b1-2)Man(a1-3)[Neu5Ac(a2-3)Gal(b1-4)GlcNAc(b1-2)Man(a1-6)]Man(b1-4)GlcNAc(b1-4)[Fuc(a1-6)]GlcNAc
# Outline: as §1
# [24] = biological target: Neu5Ac(a2-3)Gal(b1-4)GlcNAc(b1-2)Man(a1-3)[Neu5Ac(a2-6)Gal(b1-4)GlcNAc(b1-2)Man(a1-6)]Man(b1-4)GlcNAc(b1-4)GlcNAc
# Outline: as §1
# [25] = biological target: Neu5Ac(a2-3)Gal(b1-4)GlcNAc(b1-2)[Neu5Ac(a2-3)Gal(b1-4)GlcNAc(b1-6)]Man(a1-6)[Neu5Ac(a2-3)Gal(b1-4)GlcNAc(b1-2)Man(a1-3)]Man(b1-4)GlcNAc(b1-4)GlcNAc
# Outline: as §1
# [26] = biological target: Neu5Ac(a2-3)Gal(b1-4)GlcNAc(b1-3)Gal
# Outline: as §1
# [27] = biological target: Neu5Ac(a2-3)Gal(b1-4)GlcNAc(b1-3)Gal(b1-3)GlcNAc
# Outline: as §1
# [28] = biological target: Neu5Ac(a2-3)Gal(b1-4)GlcNAc(b1-3)Gal(b1-4)GlcNAc
# Outline: as §1
# [29] = biological target: Neu5Ac(a2-3)Gal(b1-4)GlcNAc(b1-3)Gal(b1-4)GlcNAc(b1-3)Gal(b1-4)GlcNAc
# Outline: as §1
# [30] = biological target: Neu5Ac(a2-3)Gal(b1-4)GlcNAc(b1-3)Gal(b1-4)[Fuc(a1-3)]GlcNAc
# Outline: as §1
# [31] = biological target: Neu5Ac(a2-3)Gal(b1-4)GlcNAc(b1-3)GalNAc
# Outline: as §1
# [32] = biological target: Neu5Ac(a2-3)Gal(b1-4)GlcNAc(b1-3)[Neu5Ac(a2-3)Gal(b1-4)GlcNAc(b1-6)]GalNAc
# Outline: as §1
# [33] = biological target: Neu5Ac(a2-3)Gal(b1-4)GlcNAc(b1-6)GalNAc
# Outline: as §1
# [34] = biological target: Neu5Ac(a2-3)Gal(b1-4)GlcNAc(b1-6)[Gal(b1-3)]GalNAc
# Outline: as §1
# [35] = biological target: Neu5Ac(a2-3)Gal(b1-4)GlcNAc(b1-6)[Neu5Ac(a2-3)Gal(b1-3)]GalNAc
# Outline: as §1
# [36] = biological target: Neu5Ac(a2-3)Gal(b1-4)GlcNAc6S
# Outline: as §1
# [37] = biological target: Neu5Ac(a2-3)Gal(b1-4)[Fuc(a1-3)]GlcNAc
# Outline: as §1
# [38] = biological target: Neu5Ac(a2-3)Gal(b1-4)[Fuc(a1-3)]GlcNAc(b1-3)Gal
# Outline: as §1
# [39] = biological target: Neu5Ac(a2-3)Gal(b1-4)[Fuc(a1-3)]GlcNAc(b1-3)Gal(b1-4)GlcNAc
# Outline: as §1
# [40] = biological target: Neu5Ac(a2-3)Gal(b1-4)[Fuc(a1-3)]GlcNAc(b1-3)Gal(b1-4)[Fuc(a1-3)]GlcNAc(b1-3)Gal(b1-4)[Fuc(a1-3)]GlcNAc
# Outline: as §1
# [41] = biological target: Neu5Ac(a2-3)Gal(b1-4)[Fuc(a1-3)]GlcNAc(b1-3)GalNAc
# Outline: as §1
# [42] = biological target: Neu5Ac(a2-3)Gal(b1-4)[Fuc(a1-3)]GlcNAc(b1-6)[Gal(b1-3)]GalNAc
# Outline: as §1
# [43] = biological target: Neu5Ac(a2-3)Gal(b1-4)[Fuc(a1-3)]GlcNAc(b1-6)[Neu5Ac(a2-3)Gal(b1-3)]GalNAc
# Outline: as §1
# [44] = biological target: Neu5Ac(a2-3)Gal(b1-4)[Fuc(a1-3)]GlcNAc6S
# Outline: as §1
binder,measurement,setting,value
B1,glycan array binding signal (z-score),[1],-0.188
same,glycan array binding signal (z-score),[2],-0.103
same,glycan array binding signal (z-score),[3],-0.183
same,glycan array binding signal (z-score),[4],-0.201
same,glycan array binding signal (z-score),[5],-0.1
same,glycan array binding signal (z-score),[6],-0.187
same,glycan array binding signal (z-score),[7],-0.554
same,glycan array binding signal (z-score),[8],-0.216
same,glycan array binding signal (z-score),[9],0.182
same,glycan array binding signal (z-score),[10],-0.125
same,glycan array binding signal (z-score),[11],-0.206
same,glycan array binding signal (z-score),[12],-0.208
same,glycan array binding signal (z-score),[13],-0.169
same,glycan array binding signal (z-score),[14],-0.205
same,glycan array binding signal (z-score),[15],-0.205
same,glycan array binding signal (z-score),[16],-0.198
same,glycan array binding signal (z-score),[17],-0.204
same,glycan array binding signal (z-score),[18],-0.194
same,glycan array binding signal (z-score),[19],-0.216
same,glycan array binding signal (z-score),Neu5Ac(a2-3)Gal(b1-4)Glc,-0.18
same,glycan array binding signal (z-score),[20],-0.192
same,glycan array binding signal (z-score),[21],-0.197
same,glycan array binding signal (z-score),[22],-0.2
same,glycan array binding signal (z-score),[23],-0.331
same,glycan array binding signal (z-score),[24],-0.201
same,glycan array binding signal (z-score),[25],-0.571
same,glycan array binding signal (z-score),[26],-0.202
same,glycan array binding signal (z-score),[27],-0.193
same,glycan array binding signal (z-score),[28],-0.19
same,glycan array binding signal (z-score),[29],-0.188
same,glycan array binding signal (z-score),[30],-0.198
same,glycan array binding signal (z-score),[31],-0.205
same,glycan array binding signal (z-score),[32],-0.217
same,glycan array binding signal (z-score),[33],-0.214
same,glycan array binding signal (z-score),[34],-0.183
same,glycan array binding signal (z-score),[35],-0.209
same,glycan array binding signal (z-score),[36],-0.198
same,glycan array binding signal (z-score),[37],-0.204
same,glycan array binding signal (z-score),[38],-0.208
same,glycan array binding signal (z-score),[39],-0.176
same,glycan array binding signal (z-score),[40],-0.198
same,glycan array binding signal (z-score),[41],-0.235
same,glycan array binding signal (z-score),[42],-0.179
same,glycan array binding signal (z-score),[43],-0.124
same,glycan array binding signal (z-score),[44],-0.203
